Reference: the supplement of paper PMC10441789
Some of the results follow. Antibody binding of pooled human sera (four to six donors per pool; dilution not stated) to peptides of the Trypanosoma cruzi antigen TSSA on microarrays. Quantile-normalised fluorescence in arbitrary units, mean of duplicate arrays; higher = more binding. No active / inactive call. The uninfected pools are read here as the healthy donors of the same country. The strongest signals lie near the top of the scale (about 60,000).

Experiments:
Assay in all cases: antibody binding signal (normalised fluorescence) (arbitrary fluorescence units); higher = stronger serum antibody binding to peptide
[1] = system: pooled sera of chronic Chagas disease patients, Bolivia
Description: (§1)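 Microarray of 15-residue peptides over residues 30-55 of Trypanosoma cruzi TSSAII, each with 1 to 10 substitutions at naturally variable positions, probed with one serum pool per country.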

[2] = system: pooled sera of chronic Chagas disease patients, Brazil
Description: as §1

[3] = system: pooled sera of chronic Chagas disease patients, Colombia
Description: as §1

[4] = system: pooled sera of chronic Chagas disease patients, Mexico
Description: as §1

[5] = system: pooled sera of chronic Chagas disease patients, USA
Description: as §1

[6] = system: pooled sera of uninfected people, Argentina
Description: as §1

[7] = system: pooled sera of uninfected people, Bolivia
Description: as §1

[8] = system: pooled sera of uninfected people, Brazil
Description: as §1

[9] = system: pooled sera of uninfected people, Colombia
Description: as §1

[10] = system: pooled sera of uninfected people, Mexico
Description: as §1

[11] = system: pooled sera of uninfected people, USA
Description: as §1

| Sequence | antibody binding signal [1] | antibody binding signal [2] | antibody binding signal [3] | antibody binding signal [4] | antibody binding signal [5] | antibody binding signal [6] | antibody binding signal [7] | antibody binding signal [8] | antibody binding signal [9] | antibody binding signal [10] | antibody binding signal [11] |
| --- | --- | --- | --- | --- | --- | --- | --- | --- | --- | --- | --- |
| GKDNKAATGETPSQS | 2020 | 20400 | 9440 | 11100 | 13800 | 198 | 316 | 173 | 255 | 129 | 115 |
| KDNKAAAGGTPSQSG | 192 | 182 | 743 | 155 | 936 | 235 | 1030 | 416 | 192 | 94.4 | 89.5 |
| TSSTPPSGKDKKAAT | 923 | 903 | 194 | 40200 | 718 | 153 | 357 | 112 | 185 | 96.2 | 127 |
| PPSGKDKKPATGGAP | 748 | 1420 | 954 | 38800 | 1890 | 429 | 857 | 113 | 251 | 100 | 253 |
| TENKPAAGETPSPSG | 764 | 15300 | 517 | 515 | 4670 | 151 | 401 | 217 | 145 | 275 | 1670 |
| GKDKKAATGETPSPS | 281 | 3570 | 2670 | 2700 | 8810 | 327 | 113 | 98.2 | 187 | 94.5 | 793 |
| PPSGKENKTAAGGTP | 731 | 4040 | 3590 | 4520 | 4910 | 3560 | 1240 | 278 | 551 | 761 | 270 |
| SGKENKPATGGAPSQ | 2020 | 17900 | 3640 | 4520 | 17400 | 8460 | 4170 | 133 | 212 | 373 | 228 |
| TEKKTATGGTPSQPG | 562 | 926 | 6370 | 804 | 2530 | 551 | 213 | 425 | 1120 | 1050 | 228 |
| ISTPPSGTENKAATG | 46300 | 52300 | 398 | 4410 | 26000 | 3460 | 721 | 462 | 936 | 395 | 749 |
| TENKPATGGAPSQPG | 15000 | 27500 | 361 | 1070 | 3850 | 363 | 1190 | 373 | 161 | 233 | 248 |
| GKENKTAAGEAPSPS | 509 | 10600 | 7860 | 6100 | 17900 | 536 | 138 | 142 | 153 | 151 | 251 |
| EKKTATGETPSPPGA | 379 | 1060 | 344 | 429 | 6950 | 345 | 740 | 149 | 116 | 246 | 1150 |
| GTDNKPATGGAPSQS | 17700 | 42600 | 2350 | 1130 | 3720 | 275 | 1310 | 618 | 215 | 517 | 174 |
| DKKTATGGTPSQSGA | 459 | 490 | 2760 | 760 | 1420 | 397 | 105 | 282 | 513 | 466 | 140 |
| GKEKKAAAGGAPSQP | 219 | 971 | 1790 | 891 | 991 | 94 | 85.4 | 111 | 94.1 | 96.4 | 77.5 |
| GKEKKAATGGAPSPS | 335 | 508 | 1580 | 2330 | 2350 | 238 | 301 | 96.6 | 349 | 112 | 101 |
| KKTAAGGTPSQSGAS | 369 | 239 | 3960 | 441 | 1440 | 284 | 123 | 908 | 115 | 227 | 212 |
| GTDKKTATGEAPSQS | 25400 | 20200 | 1590 | 465 | 21400 | 216 | 195 | 193 | 92.7 | 210 | 111 |

| Sequence | antibody binding signal [1] | antibody binding signal [2] | antibody binding signal [3] | antibody binding signal [4] | antibody binding signal [5] | antibody binding signal [6] | antibody binding signal [7] | antibody binding signal [8] | antibody binding signal [9] | antibody binding signal [10] | antibody binding signal [11] |
| --- | --- | --- | --- | --- | --- | --- | --- | --- | --- | --- | --- |
| GKENKTAAGEAPSPP | 536 | 9780 | 5770 | 5170 | 17200 | 436 | 132 | 139 | 167 | 206 | 139 |
| GKENKTAAGEAPSQS | 4210 | 15400 | 13600 | 11200 | 19100 | 520 | 156 | 148 | 137 | 156 | 165 |
| STPPSGTDKKAATGE | 30900 | 35900 | 6290 | 43400 | 6970 | 787 | 220 | 395 | 355 | 2480 | 165 |
| KPAAGGAPSQPGASS | 248 | 5830 | 1070 | 294 | 236 | 228 | 131 | 149 | 103 | 111 | 136 |
| TDNKAAAGEAPSQSG | 18800 | 24800 | 187 | 151 | 13100 | 74.8 | 352 | 141 | 62.9 | 109 | 108 |
| TDKKPATGGTPSPPG | 858 | 698 | 3060 | 829 | 452 | 162 | 793 | 1350 | 661 | 176 | 138 |
| GTDKKTATGETPSPP | 556 | 1410 | 1260 | 585 | 8050 | 283 | 294 | 240 | 119 | 257 | 605 |
| EKKAATGETPSPPGA | 1160 | 14700 | 296 | 412 | 9850 | 768 | 921 | 148 | 948 | 375 | 1760 |
| SSTPPSGTDKKAAAG | 4880 | 36000 | 7230 | 29900 | 5880 | 869 | 123 | 162 | 206 | 1410 | 236 |
| KDNKTAAGGTPSPPG | 193 | 275 | 3580 | 235 | 1360 | 273 | 154 | 339 | 202 | 139 | 157 |
| STPPSGTDKKAAAGE | 39700 | 38400 | 6380 | 27400 | 8650 | 851 | 191 | 188 | 218 | 2860 | 194 |
| TSSTPPSGTENKTAA | 48600 | 52100 | 411 | 4310 | 30100 | 7170 | 702 | 575 | 926 | 596 | 931 |
| TDKKTAAGGAPSPPG | 537 | 263 | 7180 | 769 | 862 | 238 | 102 | 166 | 319 | 339 | 154 |
| TSSTPPSGKENKPAA | 18600 | 27500 | 859 | 11100 | 14300 | 5650 | 1960 | 269 | 640 | 308 | 898 |
| SGTEKKAAAGGTPSP | 213 | 1310 | 10200 | 1670 | 2630 | 128 | 612 | 1680 | 215 | 102 | 209 |
| PSGTENKPAAGGAPS | 34200 | 44800 | 5300 | 5920 | 13300 | 1940 | 3470 | 952 | 581 | 686 | 566 |
| GTEKKPAAGGTPSQS | 179 | 429 | 3900 | 1060 | 1140 | 178 | 586 | 1980 | 124 | 295 | 1570 |
| GKDKKTAAGGAPSPS | 238 | 192 | 3100 | 457 | 367 | 147 | 112 | 128 | 148 | 95.7 | 129 |
| GKEKKTAAGGTPSPP | 248 | 414 | 4270 | 2620 | 2940 | 109 | 92.3 | 296 | 147 | 131 | 86.2 |
